Measurements reported in the BET-seq Pho4 binding data (Le et al. 2018).
The list shows a part of the results. Values were computed here from the reads of four pooled replicates and scatter widely.

biological target: T1, Pho4 (S. cerevisiae) (UniProt P07270); assay: relative binding free energy (BET-seq); higher = weaker binding; conditions: reference: library average
T1 sequence: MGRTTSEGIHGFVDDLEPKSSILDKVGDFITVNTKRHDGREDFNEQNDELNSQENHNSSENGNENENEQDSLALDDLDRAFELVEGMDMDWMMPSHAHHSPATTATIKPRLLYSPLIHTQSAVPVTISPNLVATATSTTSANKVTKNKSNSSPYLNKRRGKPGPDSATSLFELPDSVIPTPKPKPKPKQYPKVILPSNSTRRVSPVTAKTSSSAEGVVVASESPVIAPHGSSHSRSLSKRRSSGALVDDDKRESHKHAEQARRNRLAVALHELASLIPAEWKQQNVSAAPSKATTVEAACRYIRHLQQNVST

Sequence	relative binding free energy
CGGTGCACGTGTGCAG	-0.03 kcal/mol
AAGGACACGTGATATT	0.16 kcal/mol
TGCTTCACGTGTGGTC	0.2 kcal/mol
GACGGCACGTGGGGTA	-0.2 kcal/mol
TATAGCACGTGAGGGA	0.13 kcal/mol
GGGTTCACGTGTAACT	0.36 kcal/mol
GCGTTCACGTGTCGGA	0.41 kcal/mol
GGGTTCACGTGCCTTG	0.22 kcal/mol
ATGTTCACGTGATTCG	0.3 kcal/mol
GGATGCACGTGTTAAT	0.02 kcal/mol
CTAAACACGTGTGTGT	0 kcal/mol
TGTTTCACGTGTCTAT	0.26 kcal/mol
ATGGACACGTGTGTAA	0.14 kcal/mol
GTGCGCACGTGTAAGT	0.23 kcal/mol
ATGTGCACGTGGGTAA	-0.11 kcal/mol
GCAGGCACGTGTGGGA	-0.06 kcal/mol
ATGGGCACGTGCAGCT	-0.16 kcal/mol
TTTGCCACGTGAAGGG	0.14 kcal/mol
AGATGCACGTGGTTTC	0.11 kcal/mol
TGCGTCACGTGATGGC	0.16 kcal/mol
AGTGGCACGTGTCTGT	-0.16 kcal/mol
TTTGTCACGTGAGCTC	0.38 kcal/mol
GTATTCACGTGCGGTT	0.18 kcal/mol
AGTGACACGTGCGGGA	0.07 kcal/mol
TCGTGCACGTGCTGTT	-0.01 kcal/mol
TCTTGCACGTGGCTTT	-0.06 kcal/mol

Sequence	relative binding free energy
GCGTGCACGTGGGCTG	-0.2 kcal/mol
TCAGTCACGTGAGGTT	0.32 kcal/mol
GGTTACACGTGTTTGA	0.16 kcal/mol
GTAATCACGTGTGATA	0.22 kcal/mol
ACGGACACGTGTAGTG	0.08 kcal/mol
TACTTCACGTGTGGGG	0.22 kcal/mol
TTATACACGTGTGCTG	0.02 kcal/mol
AAGCTCACGTGATGGG	0.19 kcal/mol
TGAGTCACGTGACATT	0.36 kcal/mol
GGGTACACGTGTGAGA	0.26 kcal/mol
GGTTCCACGTGAATTT	0.45 kcal/mol
TTTTACACGTGGACAT	0.12 kcal/mol
GTGGTCACGTGTGCCT	0.04 kcal/mol
ATTACCACGTGGGTAG	-0.17 kcal/mol
TCGGGCACGTGGACTG	0.05 kcal/mol
GTCATCACGTGATGGT	0.18 kcal/mol
GTGGGCACGTGCAGAT	0.02 kcal/mol
GGACTCACGTGGATGT	0.36 kcal/mol
TCAGTCACGTGGGCTG	-0.05 kcal/mol
AGGGTCACGTGTTCTA	0.08 kcal/mol
GTATGCACGTGAATTT	0.28 kcal/mol
GTGTGCACGTGTTGTT	-0.03 kcal/mol
GGGTTCACGTGTCGAA	0.27 kcal/mol
CGGTGCACGTGTATTA	0.05 kcal/mol
CGTGTCACGTGTCGTG	0.05 kcal/mol
GGGGTCACGTGTAATG	0.28 kcal/mol

Sequence	relative binding free energy
TATTGCACGTGCTTAG	-0.1 kcal/mol
GGGCACACGTGTAGTG	0.1 kcal/mol
TGTAACACGTGGAGGA	-0.08 kcal/mol
TGTATCACGTGAACGT	0.26 kcal/mol
TCGGCCACGTGGGATG	-0.13 kcal/mol
TTGGTCACGTGTGTGC	0.19 kcal/mol
ATCATCACGTGAAGTG	0.28 kcal/mol
ATTAGCACGTGGAGTG	-0.11 kcal/mol
GTTAACACGTGTATTA	0.03 kcal/mol
TGCGGCACGTGATGCT	-0.06 kcal/mol
CGGTTCACGTGGCTTG	0.14 kcal/mol
TTTTACACGTGATTAC	0.21 kcal/mol
ATTGTCACGTGTGTAC	-0.01 kcal/mol
TGATCCACGTGTAGGT	0.15 kcal/mol
GGGTACACGTGTGTTG	0.15 kcal/mol
ATTCTCACGTGTAGAT	0.37 kcal/mol
GATATCACGTGAGTGT	0.28 kcal/mol
TTGTGCACGTGTAAAT	0.1 kcal/mol
GTTTTCACGTGATCTG	0.39 kcal/mol
ATTGGCACGTGAGTGG	0.08 kcal/mol
CTGTCCACGTGGGGTG	-0.26 kcal/mol
TGGTGCACGTGAGGTC	0.22 kcal/mol
TAAAGCACGTGAGCTT	0.25 kcal/mol
TAGAGCACGTGTTGTT	-0.08 kcal/mol
GGTGACACGTGAGTTC	0.3 kcal/mol
TAGTTCACGTGGGCGA	0.16 kcal/mol

Sequence	relative binding free energy
ATTACCACGTGTGTGG	-0.04 kcal/mol
ATAAGCACGTGTGGCT	-0.11 kcal/mol
CGGAGCACGTGTGGCT	0.04 kcal/mol
GTGGTCACGTGTATAA	0.23 kcal/mol
ATTGGCACGTGGGATT	-0.1 kcal/mol
TACGTCACGTGTGTAG	0.18 kcal/mol
GCTGGCACGTGTACGG	-0.06 kcal/mol
TATCGCACGTGTTTTG	-0.03 kcal/mol
TTTGTCACGTGTGTGT	0.17 kcal/mol
CTTGACACGTGTAGTT	0.04 kcal/mol
AGTACCACGTGAGTTT	0.29 kcal/mol
GCGAGCACGTGGGGCT	-0.18 kcal/mol
GTGGTCACGTGTCCGT	0.23 kcal/mol
AAGGTCACGTGATGTC	0.32 kcal/mol
TTAACCACGTGATGTT	0.22 kcal/mol
GCTGTCACGTGATGTT	0.35 kcal/mol
GTAAACACGTGATGGA	0.35 kcal/mol
TTAGGCACGTGCTGTT	-0.16 kcal/mol
TTAAACACGTGGGTCG	-0.1 kcal/mol
TAATTCACGTGTGTTG	0.21 kcal/mol
TTATTCACGTGAGGCA	0.39 kcal/mol
GTGGGCACGTGCCGTA	-0.06 kcal/mol
TGGATCACGTGCGGAT	0.04 kcal/mol
GTGTGCACGTGAGTAA	0.08 kcal/mol
GGGTTCACGTGCATAG	0.26 kcal/mol
ATTGACACGTGATATT	0.15 kcal/mol

Sequence	relative binding free energy
AGCTTCACGTGTGTAT	0.29 kcal/mol
AAAATCACGTGTGTAT	0.27 kcal/mol
CTTTGCACGTGTGTGA	-0.04 kcal/mol
GTTGGCACGTGAAGCT	0.3 kcal/mol
GTAGCCACGTGTTTTT	0.06 kcal/mol
TGATTCACGTGAAGGG	0.38 kcal/mol
GTGGTCACGTGCTTGA	0.09 kcal/mol
GTACACACGTGATGGG	0.21 kcal/mol
TTCTTCACGTGGGTTT	0.2 kcal/mol
GTTAGCACGTGTAAAT	0.23 kcal/mol
TTTAGCACGTGACAGG	0.04 kcal/mol
CGATACACGTGTGGAG	0.14 kcal/mol
TGACTCACGTGAGTGG	0.24 kcal/mol
ATTCGCACGTGATATT	0 kcal/mol
TTGATCACGTGTTTCT	0.19 kcal/mol
ACTGTCACGTGTAGTT	0.08 kcal/mol
GGAAACACGTGGTGTT	-0.08 kcal/mol
AGTATCACGTGTAGCT	0.16 kcal/mol
CGTTGCACGTGACTTG	0.29 kcal/mol
TGTTGCACGTGGACAG	-0.06 kcal/mol
ATTTGCACGTGGAGGG	0.04 kcal/mol
GTGAACACGTGCGGGG	-0.05 kcal/mol
TGCAACACGTGTATTG	0.01 kcal/mol
TTGTTCACGTGCATTA	0.29 kcal/mol
ACTAGCACGTGTGGGG	-0.1 kcal/mol
TAAGGCACGTGGGAAA	-0.1 kcal/mol

Sequence	relative binding free energy
TAGGACACGTGGGATT	-0.18 kcal/mol
CTGGTCACGTGCGTGG	0.08 kcal/mol
TTTTTCACGTGGCCGT	0.27 kcal/mol
ATTGGCACGTGTGCGG	-0.16 kcal/mol
GTCAGCACGTGTGGTA	0 kcal/mol
GTTCTCACGTGTTAAT	0.23 kcal/mol
GGGAGCACGTGACGGG	0.07 kcal/mol
CCAGGCACGTGCGGGG	-0.07 kcal/mol
AAGTTCACGTGCTGGG	0.33 kcal/mol
CGGAGCACGTGCGGTT	-0.06 kcal/mol
AATGGCACGTGGGAAA	-0.02 kcal/mol
GCCTGCACGTGGTTAG	0.15 kcal/mol
TGGGGCACGTGTCAGC	-0.07 kcal/mol
GTAGACACGTGTGTGT	0.06 kcal/mol
AGGCTCACGTGAAGGT	0.36 kcal/mol
GGGAGCACGTGATATG	0.03 kcal/mol
AAAAACACGTGTTGGG	0.14 kcal/mol
TGTGACACGTGGAATA	0 kcal/mol
GGTGCCACGTGATGAG	0.07 kcal/mol
CTTTGCACGTGAGATT	0.32 kcal/mol
TGTCGCACGTGTAAAT	0 kcal/mol
CGGGCCACGTGGGCGT	-0.26 kcal/mol
GTTATCACGTGGGAGG	0.18 kcal/mol
GGGGGCACGTGTGGAT	0.01 kcal/mol
ATCTTCACGTGACGTT	0.37 kcal/mol
ATTCTCACGTGAAGTG	0.24 kcal/mol

Sequence	relative binding free energy
TAGTGCACGTGTCGAG	-0.08 kcal/mol
TGAGGCACGTGGACAT	-0.13 kcal/mol
GCGTGCACGTGGTCTG	-0.2 kcal/mol
AGGGACACGTGGGACG	-0.18 kcal/mol
TTGAGCACGTGGTCTT	-0.16 kcal/mol
GGTAGCACGTGTAATT	0.17 kcal/mol
GCCGGCACGTGGGAGT	-0.15 kcal/mol
GTGATCACGTGCCTGG	0.07 kcal/mol
GGAGCCACGTGGAGGG	0 kcal/mol
TGTCGCACGTGTATTT	-0.03 kcal/mol
AATGGCACGTGTTGCT	-0.11 kcal/mol
CTATGCACGTGTAGTT	0.1 kcal/mol
GTTCCCACGTGGTTTT	-0.04 kcal/mol
AGTAGCACGTGAGTGC	0.17 kcal/mol
AGCTTCACGTGTGGTT	0.34 kcal/mol
TGTAACACGTGTTATT	-0.14 kcal/mol
GGATCCACGTGGTTTG	-0.01 kcal/mol
TTGGTCACGTGGAACT	0.11 kcal/mol
GACGGCACGTGGGGGC	-0.22 kcal/mol
TTGTCCACGTGGGGTG	-0.13 kcal/mol
GGTATCACGTGTTACT	0.22 kcal/mol
GCGGGCACGTGGAGGA	-0.1 kcal/mol
CCGTGCACGTGTGGGA	-0.03 kcal/mol
TCAAACACGTGTTGTT	0.13 kcal/mol
TTATGCACGTGTTGTC	0.03 kcal/mol
GAGAACACGTGTAGGG	0 kcal/mol

Sequence	relative binding free energy
TGGGGCACGTGGAGTT	0.01 kcal/mol
GGAAGCACGTGGAGAT	-0.09 kcal/mol
GGTATCACGTGGAGGA	0.17 kcal/mol
GGGTGCACGTGGGTGG	-0.13 kcal/mol
GACGGCACGTGAGGGT	0.22 kcal/mol
GGTGTCACGTGACAGG	0.1 kcal/mol
TGCTCCACGTGAGTGT	0.17 kcal/mol
TGTTGCACGTGGGTAC	-0.11 kcal/mol
TAAGGCACGTGGGGAT	-0.16 kcal/mol
TCTTTCACGTGTGAAT	0.34 kcal/mol
AGGCACACGTGGGGTT	-0.07 kcal/mol
TATGGCACGTGTAGGG	-0.08 kcal/mol
CTGCTCACGTGTTGTG	0.14 kcal/mol
TTAAACACGTGTCGAG	0.17 kcal/mol
GTTAGCACGTGTCTTA	0.15 kcal/mol
TGTATCACGTGTTATT	0.1 kcal/mol
AGGAGCACGTGTGATG	-0.11 kcal/mol
TTATGCACGTGCGGGC	-0.05 kcal/mol
TGGAACACGTGTATTA	0.08 kcal/mol
TGTATCACGTGACATT	0.31 kcal/mol
GGTATCACGTGTTTCG	0.38 kcal/mol
AGTTTCACGTGAGGGA	0.37 kcal/mol
TGGCTCACGTGAAGTA	0.34 kcal/mol
CCTTTCACGTGGGGTT	0.05 kcal/mol
GGTTCCACGTGTATAG	0.21 kcal/mol
GCAGACACGTGTGTTG	0.06 kcal/mol

Sequence	relative binding free energy
GGATACACGTGGGTAA	-0.05 kcal/mol
TGTTTCACGTGACGGT	0.37 kcal/mol
CTTTGCACGTGGGCAT	-0.27 kcal/mol
GTATGCACGTGGGAGT	0.01 kcal/mol
CTTGACACGTGTTAGT	0.02 kcal/mol
ATTTACACGTGGGTAG	-0.07 kcal/mol
GATTTCACGTGTTTTA	0.26 kcal/mol
TGTGTCACGTGGTTTG	-0.04 kcal/mol
TGTGGCACGTGTACTT	-0.11 kcal/mol
TTGAGCACGTGAAGGA	0.24 kcal/mol
AATGGCACGTGGCGAG	-0.15 kcal/mol
AAGTTCACGTGGGAGG	0.24 kcal/mol
TGTCTCACGTGAGATG	0.36 kcal/mol
GTCCGCACGTGGGGGG	-0.19 kcal/mol
CGAGTCACGTGAGAGG	0.17 kcal/mol
TTATGCACGTGATGTT	0.04 kcal/mol
AGATTCACGTGCTTTT	0.17 kcal/mol
ATGGGCACGTGCAGGC	-0.17 kcal/mol
TACAGCACGTGCGTGG	-0.04 kcal/mol
GACGGCACGTGTTATT	0.06 kcal/mol
CGCGTCACGTGAGGGT	0.07 kcal/mol
CTCTGCACGTGTTAGG	-0.03 kcal/mol
